Measured values published in PubChem BioAssay (NCATS).
This list was built around the results that the source calls inconclusive (neither active nor inactive); the mix of calls is not that of the screen. For part of these data: Potencies of inconclusive entries are doubtful fits and often do not repeat. Active and inactive are the calls of the source. Unless noted, calls come from the whole dose curve; as a rule, active = well fitted curve in the direction sought with a large enough effect; inconclusive = small, poorly fitted or top-dose-only effect, or another doubt; inactive = no such curve, though single readings can be large; an effect the other way counts as inactive or inconclusive.

Legend:
[1] = P-glycoprotein substrates identified in KB-8-5-11 adenocarcinoma cell line, qHTS therapeutic library screen (AID 1346987); note: nearly all actives have a fitted effect of over 65% in size; note: potency is the fitted concentration of half-maximal effect
Summary of the method: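 KB-8-5-11, a colchicine-selected P-gp-overexpressing KB-3-1 subline, was grown without colchicine for the assay. Cells were seeded at 500 cells/well, dosed in concentration-response and incubated 72 h at 37 degree C, 5% CO2. Viability was read by CellTiter-Glo luminescence.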

[2] = test system: Zika virus NS2B-NS3 protease (unlinked complex); assay: Primary screen GU Rhodamine qHTS for Zika virus inhibitors: Unlinked NS2B-NS3 protease assay (AID 1347159); note: nearly all actives have a fitted effect of over 60% in size; note: potency is the fitted concentration of half-maximal effect
Summary of the method: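 Percent inhibition derives from the 15-min fluorescence change (ex 480, em 540 nm), normalized to no-enzyme and no-inhibitor wells. Reactions contained 25 nM NS2B-NS3 complex and 1.5 microM substrate in 10 mM Tris-HCl pH 8.0.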

[3] = biological target: Calcium and integrin-binding protein 1 (Homo sapiens) (UniProt Q99828); assay: Primary qHTS for Identification of Calcium Integrin Binding Protein 1 (CIB1) Competitor (AID 1508620);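 note: GST tagged CIB1 binding a fluorescein labelled alphaIIb integrin peptide tracer; top concentration of the series differs between compounds; % is set by controls: 0 for no effect and ±100 for the full control effect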
Summary of the method: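 Fluorescence polarization competition: CIB1-GST (1 uM final) preincubated with compound 15 min at room temperature, then FITC-labeled alphaIIb peptide (100 nM final) added for another 15 min. Polarization read at Ex 480/Em 540.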

[4] = Primary qHTS for inhibitors of nuclear receptor binding SET domain protein 2 (NSD2) in an RCH-ACV wild type WT cells (2C) (AID 1645877); settings: activity change, negative = cell killing: at 44.9 µM (top of the series) unless noted; note: nearly all actives have a fitted effect of over 70% in size; note: potency is the fitted concentration of half-maximal effect
[5] = Primary redox qHTS assay for identification of artifact compounds. (AID 1845223); settings: Amplex Red/HRP redox cycling with DTT, fluorescence; redox activity (% of DA3003): at 53.8 µM (top of the series); note: potency is the fitted concentration of half-maximal effect
Summary of the method: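 Amplex Red (25 uM) and HRP (250 mU/mL) in HBSS, with compounds for 15 min, then 250 uM DTT for 30 min, room temperature, dark. Fluorescence 525/598 nm read; normalized to DMSO and 10 uM DA3003; Hill fit.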

HEK293 = assay: Cytotoxic Profiling of Annotated Libraries Using Quantitative High-Throughput Screening (AID 1296008); settings: Five cell lines viability, CellTiter-Glo ATP luminescence, 48-72 h; max response: active compounds read low; note: nearly all actives have a fitted effect of over 60% in size; note: potency is the fitted concentration of half-maximal effect
Summary of the method: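 Compounds were pin-transferred onto cells and incubated 48 or 72 hr at 37 degree Celsius, 95% humidity. CellTiter-Glo was added, plates sat 10 min at room temperature, then ATP-coupled luminescence was imaged as the viability read-out.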

Es-2 = assay: Primary qHTS to identify gynecologic anti-cancer compounds using libraries of approved drugs and bioactive compounds (AID 1345084); settings: Gynecologic cancer cell panel viability, ATPlite luminescence, 48 h; series mostly up to 57.5 µM; note: nearly all actives have a fitted effect of over 55% in size; note: potency is the fitted concentration of half-maximal effect; for activity change, negative = cytotoxicity: % is set by controls: 0 for no effect and ±100 for the full control effect
Summary of the method: (§1)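 Cytotoxicity screen measuring ATP content by luciferase luminescence. Each compound is applied at five concentrations for 48 h at 37 C with 5% CO2.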

OV90 = assay: as above; settings: Gynecologic cancer cell panel viability, ATPlite luminescence, 48 h; series mostly up to 57.5 µM
Summary of the method: as §1

[6] = qHTS to identify inhibitors of the type 1 interferon - major histocompatibility complex class I in skeletal muscle: primary screen against the NCATS Mechanism Interrogation Plate v5.0 (MIPE) Libary (AID 1347411); settings: iHSKM cells + IFN-b, HiBiT-tagged MHC-I luminescence, 24 h; activity change, negative = inhibition: at 45.8 µM (top of the series); note: potency is the fitted concentration of half-maximal effect; nearly all actives have a fitted effect of over 65% in size
Summary of the method: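 Immortalized human myoblasts (C25cl48) with HiBit knocked into endogenous HLA-B*08:01 were stimulated with 4 ng/ml IFN-beta and given compounds in 11-point 1:3 titration from 46 uM. After 24 h at 37 C, lytic HiBiT luminescence was read.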

[7] = biological target: Cytochrome P450 2C9 (Homo sapiens) (UniProt P11712); assay: Cytochrome P450 family 2 subfamily C member 9 (CYP2C9) small molecule antagonists: luciferase biochemical (cell-free) qHTS assay (AID 1645842; active = well fitted curve in the direction sought with a large enough effect in the repeat runs; inconclusive = weak or mixed curves; inactive = no such curve, though single readings can be large; an effect the other way counts as inactive or inconclusive)
Summary of the method: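 Luminescence, after 20 min with luciferin detection reagent, reflected CYP2C9 turnover during a 1 h NADPH-driven reaction at 37C. Enzyme-substrate mix contained 0.4% bovine serum albumin and was preincubated with compound 10 min at room temperature.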

[8] = biological target: Glutathione peroxidase 1 (Homo sapiens) (UniProt P07203); assay: Primary qHTS Assay for Inhibitors of Recombinant Selenoprotein Glutathione Peroxidase 1 (GPX1) (AID 1845191); settings: activity, negative = inhibition: at 48.8 µM (top of the series); note: potency is the fitted concentration of half-maximal effect; nearly all actives have a fitted effect of over 65% in size
Summary of the method: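 Recombinant GPX1 (10 nM final) was preincubated with compound for 30 min at room temperature, then reacted with 1 mM GSH, 0.5 mM CHP, 0.5 mM NADPH and 100 nM glutathione reductase; NADPH fluorescence (340/450 nm) was read at 0 and 15 min.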

[9] = Primary qHTS for inhibitors of nuclear receptor binding SET domain protein 2 (NSD2) in an isogenic RCH-ACV NSD2 p.E1099K mutant (9B) (AID 1645876); note: nearly all actives have a fitted effect of over 70% in size; note: potency is the fitted concentration of half-maximal effect
[10] = NCATS anti-infectives library activity on the primary C. elegans qHTS viability assay (AID 1745855; calls by dose curve)
Summary of the method: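 Viability read-out is GFP fluorescence of PE254-GFP-FLuc C. elegans, measured by laser cytometry (488 nm) at day 0, 3 and 7. Ten L1 worms per well were incubated 7 days at 21 °C with compounds and bacterial capsules in S medium.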

HeLa = assay: Primary qHTS to identify gynecologic anti-cancer compounds using libraries of approved drugs and bioactive compounds (AID 1345084); settings: Gynecologic cancer cell panel viability, ATPlite luminescence, 48 h; activity change, negative = cytotoxicity: at 57.5 µM (top of the series); note: nearly all actives have a fitted effect of over 55% in size; note: potency is the fitted concentration of half-maximal effect; for activity change, negative = cytotoxicity: % is set by controls: 0 for no effect and ±100 for the full control effect
Summary of the method: as §1

Hek293T = assay: as above; settings: Gynecologic cancer cell panel viability, ATPlite luminescence, 48 h, control line for the selectivity index; activity change, negative = cytotoxicity: at 57.5 µM (top of the series) unless noted
Summary of the method: as §1

[11] = biological target: Cytochrome P450 2D6 (Homo sapiens) (UniProt P10635); assay: Cytochrome P450 family 2 subfamily D member 6 (CYP2D6) small molecule antagonists: luciferase biochemical (cell-free) qHTS assay (AID 1645840; active = well fitted curve in the direction sought with a large enough effect in the repeat runs; inconclusive = weak or mixed curves; inactive = no such curve, though single readings can be large; an effect the other way counts as inactive or inconclusive)
Summary of the method: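 P450-Glo luminescent screen: recombinant CYP2D6 enzyme–proluciferin substrate mix preincubated with compound 10 min at room temperature, then NADPH regeneration added for 1 h at room temperature. Detection reagent added for 20 min; luciferin light read as relative luminescence units.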

SKOV3 = assay: Primary qHTS to identify gynecologic anti-cancer compounds using libraries of approved drugs and bioactive compounds (AID 1345084); settings: Gynecologic cancer cell panel viability, ATPlite luminescence, 48 h; series mostly up to 57.5 µM; note: nearly all actives have a fitted effect of over 55% in size; note: potency is the fitted concentration of half-maximal effect; for activity change, negative = cytotoxicity: % is set by controls: 0 for no effect and ±100 for the full control effect
Summary of the method: as §1

[12] = Primary fluorescence-based thiol-reactive (MSTI) qHTS assay for identification of artifact compounds. (AID 1845221); note: potency is the fitted concentration of half-maximal effect;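 note: thiol-reactive compounds lower the probe fluorescence signal; nearly all actives have a fitted effect of over 65% in size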
Summary of the method: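 Curve-fitted percent inhibition (4-parameter Hill) derived from fluorescence, Ex 525/Em 598 nm, scaled with Acetyl-MSTI and MSTI; 1 h incubation at room temperature.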

[13] = test system: Nanoluciferase (engineered Oplophorus gracilirostris luciferase); assay: Primary Nanoluciferase (NLuc) qHTS assay for identification of artifact compounds. (AID 1845222); note: potency is the fitted concentration of half-maximal effect
Summary of the method: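 Luminescence read-out of secreted NLuc in S16 cell conditioned medium (1:55); compounds tested with 15 min RT preincubation, then Nano-Glo substrate 1:100, 5 min. % inhibition vs no-enzyme and DMSO controls, 4-parameter Hill fit.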

JEG-3 = assay: Primary qHTS to identify gynecologic anti-cancer compounds using libraries of approved drugs and bioactive compounds (AID 1345084); settings: Gynecologic cancer cell panel viability, ATPlite luminescence, 48 h; series mostly up to 57.5 µM; note: nearly all actives have a fitted effect of over 55% in size; note: potency is the fitted concentration of half-maximal effect
Summary of the method: as §1

PA-1 = assay: as above; settings: Gynecologic cancer cell panel viability, ATPlite luminescence, 48 h; series mostly up to 57.5 µM
Summary of the method: as §1

Tov-21-G = assay: as above; settings: Gynecologic cancer cell panel viability, ATPlite luminescence, 48 h; activity change, negative = cytotoxicity: at 57.5 µM (top of the series) unless noted
Summary of the method: as §1

[14] = test system: Zika virus NS2B-NS3 protease (linked construct); assay: Primary screen NINDS Rhodamine qHTS for Zika virus inhibitors (AID 1347160); settings: activity change, negative = inhibition: at 57.1 µM (top of the series) unless noted
Summary of the method: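 In 10 mM Tris-HCl pH 8.0 containing 0.01% Tween 20, linked NS2B-NS3 protease (25 nM final) is exposed to test compounds for 15 min. Cleavage of 1.5 microM Rhodamine110 substrate is tracked by fluorescence over 15 min.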

[15] = biological target: Luciferin 4-monooxygenase (Photinus pyralis) (UniProt P08659); assay: Primary firefly luciferase (FLuc) qHTS assay for identification of artifact compounds. (AID 1845220); note: potency is the fitted concentration of half-maximal effect; nearly all actives have a fitted effect of over 60% in size
Summary of the method: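 qHTS, 15 min compound preincubation with substrate (10 uM luciferin, 10 uM ATP) at RT, then 10 nM FLuc; 5 min; luminescence; % inhibition vs no-enzyme/DMSO controls, 4-parameter Hill fit.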
Tags give direction and shape of the fitted curve.

Chain of UniProt P11712 (P11712 whole entry, looked up): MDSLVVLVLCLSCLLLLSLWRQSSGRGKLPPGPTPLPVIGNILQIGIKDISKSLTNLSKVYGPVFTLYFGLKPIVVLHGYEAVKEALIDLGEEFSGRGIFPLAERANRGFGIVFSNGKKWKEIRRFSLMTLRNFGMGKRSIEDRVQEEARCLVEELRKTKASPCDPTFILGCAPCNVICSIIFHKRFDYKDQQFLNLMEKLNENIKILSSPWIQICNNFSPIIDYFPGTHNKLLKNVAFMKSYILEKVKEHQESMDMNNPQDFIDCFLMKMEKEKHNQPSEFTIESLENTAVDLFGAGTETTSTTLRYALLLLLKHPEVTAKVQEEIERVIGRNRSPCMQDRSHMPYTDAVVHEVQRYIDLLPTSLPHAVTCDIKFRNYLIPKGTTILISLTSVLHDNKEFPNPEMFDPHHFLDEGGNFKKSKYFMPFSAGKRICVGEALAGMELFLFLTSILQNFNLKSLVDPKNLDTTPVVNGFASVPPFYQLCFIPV
Chain of UniProt P07203 (P07203 whole entry, looked up): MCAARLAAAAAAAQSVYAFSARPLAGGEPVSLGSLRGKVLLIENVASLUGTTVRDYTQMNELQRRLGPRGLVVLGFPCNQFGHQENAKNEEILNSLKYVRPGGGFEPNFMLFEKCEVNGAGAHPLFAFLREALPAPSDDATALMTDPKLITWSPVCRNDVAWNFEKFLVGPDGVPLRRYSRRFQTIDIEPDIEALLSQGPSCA
Chain of UniProt P10635 (P10635 whole entry, looked up): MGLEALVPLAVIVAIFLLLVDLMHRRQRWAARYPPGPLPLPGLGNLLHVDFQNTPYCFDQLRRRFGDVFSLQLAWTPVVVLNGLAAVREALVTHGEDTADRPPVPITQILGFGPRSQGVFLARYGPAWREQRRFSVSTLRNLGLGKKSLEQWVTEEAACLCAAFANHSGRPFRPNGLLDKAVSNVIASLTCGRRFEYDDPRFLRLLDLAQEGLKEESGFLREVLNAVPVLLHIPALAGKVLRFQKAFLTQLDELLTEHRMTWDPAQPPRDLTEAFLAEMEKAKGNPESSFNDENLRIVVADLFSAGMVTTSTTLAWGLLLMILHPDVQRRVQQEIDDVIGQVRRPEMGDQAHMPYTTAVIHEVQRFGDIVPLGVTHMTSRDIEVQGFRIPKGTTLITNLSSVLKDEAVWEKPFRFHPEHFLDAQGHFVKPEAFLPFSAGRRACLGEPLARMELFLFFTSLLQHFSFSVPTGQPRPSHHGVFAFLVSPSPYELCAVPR
Chain of UniProt Q99828 (Q99828 whole entry, looked up): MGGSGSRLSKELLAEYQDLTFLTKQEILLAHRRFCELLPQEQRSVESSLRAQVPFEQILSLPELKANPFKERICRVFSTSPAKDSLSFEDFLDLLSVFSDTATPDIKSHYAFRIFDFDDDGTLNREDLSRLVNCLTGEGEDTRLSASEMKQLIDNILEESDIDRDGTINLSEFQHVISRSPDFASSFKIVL

CCC/C=C/C(=O)O[C@H]1CC(C)(C)CC2[C@@]13[C@H](O)C[C@]1(C)[C@@]2(CCC2[C@@]4(C)CC[C@H](O[C@@H]5O[C@H](C(=O)O)[C@@H](O)[C@H](O[C@@H]6O[C@H](CO)[C@H](O)[C@H](O)[C@H]6O[C@@H]6O[C@@H](C)[C@H](O)[C@@H](O)[C@H]6O[C@@H]6OC[C@](O)(CO)[C@H]6O)[C@H]5O[C@@H]5O[C@H](CO)[C@H](O)[C@H](O)[C@H]5O)C(C)(C)C4CC[C@]21C)O[C@H]3O (stereo not given in full)
inactive: outcome [1] inactive [at 9.29 µM] | activity change, negative = inhibition [3] 4.06% [at 12.4 µM] | activity change, negative = cytotoxicity (Es-2) 3.48% [at 6.55 µM]
inconclusive: Potency [2] 8.91 µM [inhibitor, partial curve] | Potency [4] 2.74 µM [inhibitor, single point] | Potency [5] 3.57 µM [activator, partial curve, poor fit] | Potency (HEK293) 2.45 µM [inhibitor, single point] | Potency (OV90) 5.01 µM [cytotoxic, single point]

Cc1ncc(NC(=O)c2ccc(CN3CCN(C)CC3)c(C(F)(F)F)c2)cc1Nc1nccc(-c2cccnc2)n1
inconclusive: Potency [6] 52.3 µM [inhibitor, single point] | Potency [7] 4.77 µM [inhibitor, full curve] | Potency [8] 29 µM [inhibitor, single point] | Potency (OV90) 5.62 µM [cytotoxic, full curve]
active: Potency (HEK293) 16.4 µM
inactive: Potency (Es-2)

CNCCCC1(c2ccccc2)OC(C)(C)c2ccccc21 (stereo not given)
inconclusive: Potency [9] 18.3 µM [inhibitor, single point] | Potency [4] 20.5 µM [inhibitor, single point] | Potency (HEK293) 29.1 µM [inhibitor, single point]
inactive: Potency [1] | Potency (Es-2)

O=C(Nc1cc(C(F)(F)F)ccc1N1CCCCC1)c1ccncc1
inactive: Potency [10] | Potency (HeLa) | Potency (Hek293T)
inconclusive: Potency [1] 10.3 µM [inhibitor, partial curve] | Potency [2] 79.4 µM [inhibitor, partial curve, poor fit] | Potency [9] 18.3 µM [inhibitor, partial curve] | Potency [4] 23 µM [inhibitor, partial curve, poor fit] | Potency (HEK293) 29.1 µM [inhibitor, single point]

Cc1c(C2=CCN(C(=O)N(C)C(C)C)CC2)nnn1-c1cccnc1F
inactive: Potency [2] | Potency [11] | Potency [4] | Potency (Hek293T) | Potency (OV90) | Potency (SKOV3)
inconclusive: Potency [7] 23.9 µM [inhibitor, single point] | Potency (HEK293) 32.6 µM [inhibitor, partial curve, poor fit] | Potency (HeLa) 39.8 µM [rising, single point]

O=C(Nc1ccc(N(Cc2ccsc2)C(=O)Cn2nnc3ccccc32)cc1)C1CC1
inactive: Potency [2] | Potency [12] | Potency (HeLa) | Potency (JEG-3) | Potency (Tov-21-G)
inconclusive: Potency [9] 20.5 µM [inhibitor, partial curve] | Potency [4] 29 µM [inhibitor, single point] | Potency [13] 19 µM [inhibitor, partial curve] | Potency (HEK293) 29.1 µM [inhibitor, single point] | Potency (PA-1) 35.5 µM [rising, single point]

CC(=O)OCC(=O)[C@@]12O[C@@H]1C[C@H]1[C@@H]3CC=C4C[C@@H](O)CC[C@]4(C)[C@H]3CC[C@@]12C
inactive: Potency (Es-2) | Potency (OV90) | Potency (SKOV3)
inconclusive: Potency [2] 63.1 µM [inhibitor, single point] | Potency [9] 18.3 µM [inhibitor, single point] | Potency [4] 18.3 µM [inhibitor, single point] | Potency (HEK293) 29.1 µM [inhibitor, single point]

CC(=O)c1c(C)cc2cccc(O)c2c1O[C@@H]1O[C@H](CO)[C@@H](O)[C@H](O)[C@H]1O
inactive: Potency (Es-2) | Potency (SKOV3)
active: Potency [12] 5.21 µM
inconclusive: Potency [9] 20.1 µM [inhibitor, single point] | Potency (HEK293) 20.2 µM [inhibitor, single point] | Potency (PA-1) 28.2 µM [cytotoxic, single point] | Potency (Tov-21-G) 14.1 µM [cytotoxic, single point]

O=C(Nc1ccc(Cl)cc1)Nc1cccc(-c2cccc(N3CCCC3)n2)c1
inactive: Potency (HeLa)
active: Potency [7] 9.52 µM
inconclusive: Potency [14] 31.6 µM [inhibitor, single point] | Potency [9] 20.5 µM [inhibitor, single point] | Potency [4] 23 µM [inhibitor, single point] | Potency [15] 8.49 µM [inhibitor, partial curve] | Potency (HEK293) 29.1 µM [inhibitor, single point] | Potency (JEG-3) 31.6 µM [cytotoxic, single point]

CC12CC(O)C(O)C=C1c1cc(O)cc(O)c1C(=O)O2 (stereo not given)
inconclusive: Potency [12] 11.9 µM [inhibitor, partial curve]
inactive: Potency [1] | Potency [9] | Potency [4] | max response (HEK293) -7.31% | Potency (HeLa) | Potency (PA-1)
